# Where “and” joins values, the source holds several entries; their conditions need not be identical. Equal values may be shown once.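 Briefly, cells in 96-well plates were exposed to five compound concentrations for 48 h, and endpoints were estimated by linear interpolation. Here, GI50 denotes the concentration required for 50% inhibition of growth. Definition used: TGI = concentration required for complete inhibition of growth.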
# Tested on: NCI-H322M lung
# Experiment: NCI-60 cell line screen, 48 h
Compound,TGI,GI50
CC[C@@H]1CC[C@@H]2[C@H](CC[C@]3(C)[C@@H](OC(C)=O)CC[C@@H]23)[C@H]1C(=O)OC,> 100 µM,
CC(=O)OCC1OC(OC(C)=O)C(Nc2ncc(-c3ccc(C)cc3)s2)C(OC(C)=O)C1OC(C)=O (stereo not drawn),41.2 µM,
Cc1cc(C)c(S(=O)(=O)N(CCCN)OCCON(CCCN)S(=O)(=O)c2c(C)cc(C)cc2C)c(C)c1,9.07 µM,
N#CCC1C2CC3C(C2=O)C13 (stereo not drawn),> 100 µM,
Cc1cc(=O)oc2cc(OC(=O)Nc3ccccc3)ccc12,> 100 µM,
CCC(C)(C)[C@H](NC(=O)[C@H]1CCCCN1C)C(=O)N(C)[C@H](C[C@@H](OC(C)=O)c1nc(C(=O)N[C@@H](Cc2ccccc2)C[C@H](C)C(=O)O)cs1)C(C)C,> 16.7 µM,< 0.00167 µM
O=C(CCN1CCC(CCO)CC1)Nc1ccc2c(c1)C(=O)c1ccc(NC(=O)CCN3CCC(CCO)CC3)cc1C2=O,43.1 µM,
CN1C(=O)CN2C(Cl)(Cl)C2(c2ccccc2)c2cc(Cl)ccc21 (stereo not drawn),> 100 µM,
COC(=O)c1ccc(C)cc1C1CN=NC12Cc1cc(C)ccc1C2=O (stereo not drawn),> 93.5 µM,
O=C(CCc1ccc(O)c(O)c1)NCCc1cc(O)c(O)c(O)c1,> 100 µM,
C=C(COC(C)=O)CC(/C=C(\C)CC/C=C(\C)CO)OC(C)=O (stereo not drawn),> 100 µM,
Cc1cccc(N=C/C=C(\Cl)c2ccc3ccccc3c2)c1,50.3 µM,
COCC12CCC(OC)C34C5CC6(O)C(OC)C=C(C5C6OC(=O)c5ccccc5)C(C(OC)C13)C4N(C)C2 (stereo not drawn),> 100 µM,
O=c1oc2ccc3ccccc3c2cc1-c1cn2c(n1)sc1ccccc12,> 100 µM,
CC(CNC(=O)c1ccccc1)(CNC(=O)c1ccccc1)[N+](=O)[O-],> 100 µM,
CCc1nc2ccccc2c(=O)n1/N=C(\N=Nc1ccc(Cl)cc1)c1ccccc1,> 100 µM,
O=C(O)C1=CN(c2ccncc2)C(c2ccco2)=CC1c1ccccc1[N+](=O)[O-] (stereo not drawn),31 µM,
Cc1cnc2c(c1)C(=O)N(c1ccc([N+](=O)[O-])cc1)S2(=O)=O,> 100 µM,
C/C(=N\O)c1cccc(Nc2cc(-c3ccccc3)nc3c(O)cccc23)c1,31.8 µM,8.76 µM
O=C([O-])CCc1ccccc1.O=C([O-])CCc1ccccc1.O=C([O-])CCc1ccccc1.O=C([O-])CCc1ccccc1.[Mo+2].[Mo+2],> 100 µM,> 100 µM
COC(=O)[C@@H](C)C[C@H](Cc1ccccc1)NC(=O)c1csc([C@@H](C[C@H](C(C)C)N(C)C(=O)C2(NC(=O)[C@H]3CCCCN3C)CCC2)OC(C)=O)n1,> 25 µM,0.0247 µM and 0.0118 µM
CCOC(=O)Nc1ccc2c(c1)N(C(=O)CCN(CC)CC)c1ccccc1S2,> 89.5 µM and 97.3 µM,31.3 µM
O=C(/C=C/c1ccc(O)c(O)c1)NC(COC(=O)/C=C/c1ccc(O)c(O)c1)C(=O)O (stereo not drawn),> 100 µM,
c1ccc(-c2cn(-c3ccccc3)c(-c3ccccc3)n2)cc1,33.4 µM,16.6 µM
O=C1/C(=C\c2ccccc2)CN(C(=O)c2ccccc2)C/C1=C\c1ccccc1,35.9 µM,16.1 µM
O=C(c1ccccc1)C(Nc1ccc2ccccc2c1)c1ccccc1 (stereo not drawn),> 100 µM,

Compound,TGI,GI50
CN1C(C)(C)CC(=O)C(Br)C1(C)C (stereo not drawn),> 100 µM,
Nc1nc(Br)nc2ncn(C3CC(O)C(CO)O3)c12 (stereo not drawn),> 100 µM,
CC(=O)CC(=O)NC=O,> 100 µM,
C=CCC12CCC(=O)[C@@]1(C)CC=C(O)C2=O (stereo partly drawn),> 100 µM,
C=CC(OC(=O)C(C)C)c1ccc(OC(=O)C(C)C)cc1 (stereo not drawn),8.91 µM,
CCCNCC(O)CNc1ccc(NCC(O)CNCCC)c2c1C(=O)c1ccccc1C2=O (stereo not drawn),7.39 µM,
C=CC(=O)NCNC(=O)C=C,> 100 µM,
O=C1/C(=C/c2ccc(Cl)cc2)N=C(c2ccccc2)N1/N=C/c1ccccc1O,23.3 µM,
O=C(c1cccs1)c1nc2cc(Cl)ccc2[n+]([O-])c1C(F)(F)F,> 100 µM,> 100 µM
Cc1cc(C(O)(c2ccc(Nc3ccccc3)cc2)c2ccc(Nc3ccc(S(=O)(=O)O)cc3)cc2)ccc1N (stereo not drawn),6.29 µM,2.32 µM
c1ccc(-c2cc(-c3ccncc3)cc(-c3ccncc3)n2)cc1,> 100 µM,
COc1cc(/C=C/C(=O)c2ccc(F)cc2)ccc1OCCCCCOc1cc2c(cc1OC)C(=O)N1CCCC1C=N2 (stereo not drawn),1.28 µM,0.0808 µM
CCC1c2cc3n(c(=O)c2COC1O)Cc1c-3nc2ccccc2c1Cl (stereo not drawn),> 100 µM,
Cc1cc(C)nc(NCCC(O)(P(=O)(O)O)P(=O)(O)O)n1,> 100 µM,
N#Cc1c2ccccc2c2nnc3ccccc3n12,> 100 µM,54.5 µM
C=C1C(=O)OC2CC1C(OC(C)=O)C/C(C)=C/CC/C(C)=C\CCC2(C)O (stereo not drawn),31 µM and 32.2 µM,
O=C1NC(=O)C2C1C1C=C3c4ccccc4N(c4ccccc4)C32[C@H]2C(=O)NC(=O)[C@@H]12 (stereo partly drawn),> 100 µM,
COC1=CC(=O)c2c(cc3c(c2O)-c2c(OC)cc4cc5c(c(O)c4c2OC(=O)CC(C)(O)C3)C(=O)CC(C)(O)C5)C1=O (stereo not drawn),3.84 µM,
CN1CC=C(c2cccn2C)CC1,> 100 µM,
O=C(O)CCC1CCc2cccc(OCC(=O)O)c2C1=O (stereo not drawn),> 100 µM,
NCCCn1c2c(c3ccc([N+](=O)[O-])cc3c1=O)C(=O)c1cc(F)ccc1-2,1.24 µM,0.122 µM
CO[C@H]1O[C@@H]2OC3(C)CCC4[C@H](C)CCC([C@H]1C)[C@]42OO3 (stereo partly drawn),> 100 µM,
CCc1ccc(Nc2cc(=O)n(C)c(SCc3ccccc3)n2)cc1,> 100 µM,
COc1ccccc1N1C(=O)CSC1c1cc(OC)c(OC)c(OC)c1 (stereo not drawn),> 100 µM,
OCCCc1cnco1,> 100 µM,
